Here are results for 172 sequences from publication PMC6212790.

The other results are listed elsewhere or left out. At the low end of the ranking the order means little.

This assay has as its target T1, GST-Rok (full length) (UniProt O34857).
T1 sequence: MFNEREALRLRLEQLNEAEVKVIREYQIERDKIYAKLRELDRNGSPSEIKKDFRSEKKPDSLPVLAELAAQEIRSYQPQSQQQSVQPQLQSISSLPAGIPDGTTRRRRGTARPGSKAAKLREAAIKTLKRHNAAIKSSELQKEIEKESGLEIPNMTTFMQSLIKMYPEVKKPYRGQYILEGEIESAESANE
The assay can be described thus: protein binding microarray.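 Note: rank score from −0.5 (least bound) to 0.5 (best bound).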 As to conditions: Rok is a gene silencer of Bacillus subtilis; high values mean tight binding; most listed sequences are background and not binding sites; double strand, one strand shown.
For the sequence AACACATA, the binding signal was 0.165 E-score.
Turning to CTGCTGTC, the binding signal was -0.225 E-score.
As to AACGAGGA, the binding signal was -0.2 E-score.
With GTGGCCAC the figure was -0.123 E-score.
In the case of GCCCGGAA, the binding signal was -0.291 E-score.
With GCGTGTCA the figure was -0.151 E-score.
With ACTTTTGA the figure was 0.0315 E-score; with ACGCGTAA, 0.164 E-score; with AAACTGTA, 0.174 E-score.
For CACGTTCC the value was -0.0616 E-score; for GCCGCAAA, -0.232 E-score.
The sequence TGCAAGAA displayed a binding signal of -0.163 E-score.
For the sequence TCACTGGA, the binding signal is -0.0487 E-score.
For AGGGCTGA the value was -0.211 E-score.
With AGTCTTTG the figure was -0.00272 E-score; with GGGACGTA, -0.0206 E-score; with GAACTTGA, 0.103 E-score.
With CAACCTTC the figure was -0.135 E-score.
Sequence AGATTTGC yielded a binding signal of 0.0078 E-score.
With CAAAGAAA the figure was -0.0318 E-score; with CATTGTAA, 0.112 E-score; with CTAGGAGA, 0.00198 E-score.
On to TGGAAGAA, for which the binding signal is -0.0407 E-score.
For ACATTTCG the value was 0.193 E-score; for GCTAAGCC, -0.0953 E-score.
For ATTACGAA the value was 0.138 E-score; for CCTGTGAC, -0.0643 E-score; for CCGCGAAG, -0.13 E-score.
For CAACGAAC the value was 0.0188 E-score; for TACCATGA, 0.207 E-score; for CACATAGG, -0.111 E-score.
Consider CCCAAGTC, for which the binding signal was -0.19 E-score.
For CAGGTATA the value was 0.231 E-score; for GCAGGGCC, -0.297 E-score.
For AAACGCGC the value was -0.17 E-score; for TGCGAGAA, -0.000374 E-score.
For CCCACTAC the value was -0.033 E-score; for ACAGGTCA, -0.129 E-score; for ATGGATCA, -0.0234 E-score.
Consider GCAGGAAA, for which the binding signal was -0.0854 E-score.
For CAACACTA the value was 0.163 E-score; for AACTAGCG, 0.241 E-score; for CAGCAACC, -0.0895 E-score.
With AGTAATGA the figure was 0.159 E-score.
Consider ACATAATA, for which the binding signal amounted to 0.231 E-score.
For the sequence GTTATTGA, the binding signal came out at 0.0636 E-score.
For GCCACCCA the value was -0.278 E-score; for CCAAAGGA, -0.327 E-score; for CCTGTATA, 0.243 E-score.
For GCGGTGAA the value was -0.05 E-score; for AGAGCACC, -0.177 E-score.
With AAGTACGG the figure was 0.158 E-score.
Regarding GCGTGAGA, the binding signal is -0.00166 E-score.
For AAATTAAA the value was 0.166 E-score; for ACCATCCG, -0.115 E-score; for ATGTGACC, -0.00165 E-score.
Take GCTTCCCA: the binding signal is -0.243 E-score.
For AGGATCCA the value was 0.0105 E-score; for ACTAGAAT, 0.356 E-score; for CTCGCTCA, -0.0503 E-score.
For the sequence CGGCCCGC, the binding signal was -0.44 E-score.
For AAGAGGTA the value was 0.0718 E-score; for ACTAATAC, 0.265 E-score.
AAGGAGTC came in with a binding signal of -0.107 E-score.
With ACAAACTA the figure was 0.383 E-score; with GACAAGAC, -0.134 E-score.
For CCCGAGCA the value was -0.158 E-score; for AGCCCGAT, -0.0445 E-score.
Take AAGGCCCA: the binding signal is -0.281 E-score.
For GAACTTAC the value was -0.017 E-score; for GACTAGTC, 0.224 E-score.
For TCAATTGA the value was 0.232 E-score; for CATACACG, 0.0583 E-score.
For GACCGGTC the value was -0.0764 E-score.
In turn, ACACAACT came in with a binding signal of 0.111 E-score.
The sequence ATGACTGC showed a binding signal of 0.00695 E-score.
The sequence CGTCAGTA gave a binding signal of 0.0497 E-score.
In turn, CCAAATCC returned a binding signal of -0.154 E-score.
Consider AGTCAGTA, for which the binding signal came to 0.229 E-score.
With GCGCGCAC the figure was 0.0371 E-score; with ACCGGATG, -0.0132 E-score; with CTGTGAGA, -0.0466 E-score.
For ACATCGGA the value was 0.06 E-score.
With AGGTAACT the figure was 0.267 E-score; with CCTGACAA, -0.0933 E-score; with AACACAAT, -0.0265 E-score.
Take CAGTCAAG: the binding signal was -0.233 E-score.
With GCGTACAA the figure was 0.00133 E-score; with GGCCTTAA, -0.224 E-score; with CTCTCATC, 0.00156 E-score.
For TGCCGCCA the value was -0.137 E-score; for ATAGCGCA, 0.215 E-score.
For ATCTGTAA the value was 0.178 E-score; for TCAAATCA, -0.0506 E-score.
In the case of GATGTTTA, the binding signal is 0.04 E-score.
As for CAATTAAG, the binding signal is -0.152 E-score.
The sequence TAGCATGA returned a binding signal of 0.0672 E-score.
For the sequence ACGTATAC, the binding signal stood at 0.232 E-score.
Consider AGGCGTTG, for which the binding signal was -0.109 E-score.
With ATGGACCA the figure was -0.172 E-score; with GACAGAAA, -0.116 E-score; with TGGTGTAA, 0.112 E-score.
For CATATACA the value was 0.258 E-score; for ACGGAGCT, -0.0758 E-score.
For CACTCTAA the value was -0.123 E-score; for CGGGTAGA, 0.137 E-score.
Regarding GGACTCCC, the binding signal is -0.38 E-score.
For GATCCACA, the binding signal worked out at 0.0107 E-score.
For CACACCAA the value was 0.0711 E-score; for CCCCTACC, -0.301 E-score; for CCTCTTTC, -0.133 E-score.
With ATAAAAAA the figure was 0.206 E-score; with CACAAATC, 0.0545 E-score.
For CTGACCCC the value was -0.4 E-score; for GAAATCCC, -0.217 E-score; for ACTCCCGC, -0.225 E-score.
In the case of TAAGGCAA, the binding signal is 0.0401 E-score.
With CTATAGAG the figure was 0.0607 E-score; with CCGGACTA, 0.000572 E-score; with CATGTTCC, -0.0114 E-score.
With CGACCCCA the figure was -0.369 E-score.
For CCTCCACG the value was -0.303 E-score; for CACGAGCC, -0.204 E-score; for ATGACGAC, -0.0768 E-score.
In the case of GAGTTTCC, the binding signal was -0.177 E-score.
With AGGCCACA the figure was -0.268 E-score; with AACTATCC, 0.254 E-score; with AACGATTG, 0.0129 E-score.
With GCGGATGA the figure was -0.113 E-score; with GCGACCGA, -0.225 E-score.
With GTCTAAGA the figure was -0.158 E-score; with ACTGGAAG, 0.0356 E-score.
For the sequence GAACCATA, the binding signal amounted to 0.043 E-score.
For AGAAGAAT the value was 0.149 E-score; for ATGTTGAA, 0.131 E-score; for AGTGTGAC, -0.174 E-score.
As to CCGTGGCA, the binding signal was -0.285 E-score.
With AGTGTGAA the figure was 0.178 E-score.
With GCTGTAAC the figure was 0.0827 E-score.
As to ACTAGCAG, the binding signal was -0.00857 E-score.
With AGTGACCC the figure was -0.225 E-score; with CAGTGAAC, -0.00602 E-score.
With CTTTCAGC the figure was 0.0557 E-score; with TGCATCCA, 0.00981 E-score.
AATCGCTG displayed a binding signal of 0.00392 E-score.
As for GGGTTGCA, the binding signal was -0.161 E-score.
With CTTATGTA the figure was 0.111 E-score; with CTTGTTCC, -0.0961 E-score; with AAGGAAGA, -0.0679 E-score.
For ATCGATTC the value was 0.09 E-score; for CTAGATCC, 0.261 E-score.
With ATTGGAAA the figure was -0.112 E-score; with CGTTGCTC, -0.157 E-score; with GACACGTA, 0.0655 E-score.
Turning to CGTAAAGC, the binding signal is -0.0697 E-score.
For ATAGGAGG the value was -0.167 E-score.
With GTGGATGA the figure was -0.132 E-score; with CCAACACA, 0.0907 E-score.
For GGGATTCA the value was -0.21 E-score; for GGCCGCCA, -0.332 E-score; for AGTCTATG, 0.0053 E-score.
AACTAGCA came in with a binding signal of 0.27 E-score.
For TATAAAAA the value was 0.214 E-score; for GGGGTTAA, -0.0141 E-score; for ATACCGAT, 0.342 E-score.
With AGCGGGAT, the binding signal is -0.123 E-score.
For GCGAGCGC the value was -0.109 E-score; for GCTTAGCC, -0.181 E-score; for AAATGAGC, -0.0594 E-score.
With GGCCTGGA the figure was -0.277 E-score; with TCGTGGAA, -0.00322 E-score.
With CGGGCTAC the figure was -0.0679 E-score.
